Measured values: paper PMC11993684, “Fibromodulin selectively accelerates myofibroblast apoptosis in cutaneous wounds by enhancing interleukin 1β signaling” (Nature Communications, 2025)
These are yes or no findings as the source states them, for the method shown. For some of these results: Binding seen in cells or lysates may run through a third protein. Some entries that bind do so weakly or less than the wild type. For some of these results: Sequences can lack the tags named with a protein.

Sequences of proteins named here, by UniProt entry; tags and fusion partners are left off. A change or cut given only in a name is not applied to a line headed by its entry. Residues count along the entry.
UniProt P01584, residues 117-269: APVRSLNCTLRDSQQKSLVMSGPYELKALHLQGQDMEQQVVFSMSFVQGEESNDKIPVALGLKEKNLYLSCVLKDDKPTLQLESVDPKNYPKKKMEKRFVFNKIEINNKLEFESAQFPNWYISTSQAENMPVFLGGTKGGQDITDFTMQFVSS
UniProt Q9NPH3: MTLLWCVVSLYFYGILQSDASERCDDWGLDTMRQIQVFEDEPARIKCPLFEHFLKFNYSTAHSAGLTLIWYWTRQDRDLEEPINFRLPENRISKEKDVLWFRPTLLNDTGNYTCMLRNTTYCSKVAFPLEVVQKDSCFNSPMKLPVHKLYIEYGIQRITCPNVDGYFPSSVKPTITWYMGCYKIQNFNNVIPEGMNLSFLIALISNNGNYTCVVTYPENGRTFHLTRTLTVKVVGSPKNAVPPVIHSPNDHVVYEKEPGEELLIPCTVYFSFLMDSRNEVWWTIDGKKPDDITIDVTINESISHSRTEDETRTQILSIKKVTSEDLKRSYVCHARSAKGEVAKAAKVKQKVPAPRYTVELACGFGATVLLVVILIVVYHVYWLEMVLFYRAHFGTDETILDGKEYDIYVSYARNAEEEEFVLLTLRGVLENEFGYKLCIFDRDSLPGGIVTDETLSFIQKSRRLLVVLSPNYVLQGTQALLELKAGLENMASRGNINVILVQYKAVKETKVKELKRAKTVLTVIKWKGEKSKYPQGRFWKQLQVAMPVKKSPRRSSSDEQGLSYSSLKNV

T1: recombinant human fibromodulin (FMOD) with C-terminal His-tag (human) (UniProt Q06828)
T1 sequence: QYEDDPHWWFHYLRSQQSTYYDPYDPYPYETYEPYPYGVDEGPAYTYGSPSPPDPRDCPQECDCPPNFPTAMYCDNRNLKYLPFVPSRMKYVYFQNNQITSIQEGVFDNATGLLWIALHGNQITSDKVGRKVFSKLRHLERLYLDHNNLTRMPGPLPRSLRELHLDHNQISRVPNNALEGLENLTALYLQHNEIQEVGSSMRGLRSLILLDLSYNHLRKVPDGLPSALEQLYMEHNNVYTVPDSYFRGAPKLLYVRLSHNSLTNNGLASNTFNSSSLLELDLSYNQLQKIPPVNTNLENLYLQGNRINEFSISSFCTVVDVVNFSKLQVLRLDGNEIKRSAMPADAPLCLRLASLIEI


Experiments:
[1] = target: T1, recombinant human fibromodulin (FMOD) with C-terminal His-tag (human); assay: pull-down; Pierce His Protein Interaction Pull-Down Kit; 150 μg His-tagged FMOD immobilised as bait; His-tag-free 100 μg IL1β, 100 μg IL1R1, 100 μg IL1RAP, or the complex formed beforehand (100 μg IL1β, 50 μg IL1R1, 50 μg IL1RAP, 4 °C overnight) as prey; eluate by SDS-PAGE and Western blotting; both purified
[2] = target: T1, recombinant human fibromodulin (FMOD) with C-terminal His-tag (human); assay: pull-down; Pierce His Protein Interaction Pull-Down Kit; His-tagged FMOD as bait incubated in vitro with 200 μg whole membrane protein extracted from BJ-myofibroblasts (Mem-PER Plus kit); eluate by SDS-PAGE and Western blotting; only the target purified
[3] = target: endogenous IL1R1 of BJ-myofibroblasts (human (endogenous in BJ-myofibroblasts)) (UniProt P14778); assay: proximity ligation; Duolink flowPLA Detection Kit - Green, BJ-myofibroblasts detached with Accutase 24 h after treatment with FMOD and/or IL1β; endogenous partners; read by flow cytometry (percentage of PLA-HIGH cells)
[4] = target: endogenous IL1R1 of BJ-myofibroblasts (human (endogenous in BJ-myofibroblasts)) (UniProt P14778); assay: proximity ligation; Duolink in situ PLA on attached, serum-starved BJ-myofibroblasts fixed with acetone 1-72 h after treatment with FMOD and/or IL1β; endogenous partners; confocal microscopy, PLA signals per cell

Row | Molecule | binding [1] | binding [2] | binding [3] | binding [4]
1 | recombinant human IL1β (R&D Systems 201-LB-010/CF) (from UniProt P01584 117-269) (ligand) | no binding (tested: 100 μg) | – | – | –
2 | recombinant IL1RAP (R&D Systems 676-CP-100/CF) (from UniProt Q9NPH3 21-367) (receptor) | binds | – | – | –
3 | endogenous IL1R1 of BJ-myofibroblasts (from UniProt P14778 18-569) (receptor) | – | binds | – | –
4 | endogenous IL1RAP of BJ-myofibroblasts (from UniProt Q9NPH3 21-570) (receptor) | – | binds | binds | binds
5 | recombinant IL1R1 (R&D Systems 269-1R-100/CF) (receptor, human, UniProt P14778 18-336, looked up, interleukin 1 receptor type 1, recombinant, His-tag-free, 55 kDa on SDS-PAGE, carrier-free; also called interleukin 1 receptor type 1; source: bought: R&D Systems (carrier-free)) LEADKCKEREEKIILVSSANEIDVRPCPLNPNEHKGTITWYKDDSKTPVSTEQASRIHQHKEKLWFVPAKVEDSGHYYCVVRNSSYCLRIKISAKFVENEPNLCYNAQAIFKQKLPVAGDGGLVCPYMEFFKNENNELPKLQWYKDCKPLLLDNIHFSGVKDRLIVMNVAEKHRGNYTCHASYTYLGKQYPITRVIEFITLEENKPTRPVIVSPANETMEVDLGSQIQLICNVTGQLSDIAYWKWNGSVIDEDDPVLGEDYYSVENPANKRRSTLITVLNISEIESRFYKHPFTCFAKNTHGIDAAYIQLIYPVTNFQK | binds | – | – | –
